Source: PubChem BioAssay AID588591 (National Center for Advancing Translational Sciences (NCATS), 2011)
Among all 390,000 compounds or so, about 4,700 (1.2%) were called active. Inconclusive means that the source gave no clear call. Such entries were picked first, then a sample of the others. Calls follow the shape of the dose curve; as a rule, active = well fitted inhibition curve with a large enough effect; inconclusive = small, poorly fitted or top-dose-only effect, or another doubt; inactive = no such curve, though single readings can be large or run the other way. Potencies beside an inconclusive call are fits to weak or partial responses and may not hold up.

The molecules below were run against DNA polymerase eta (Homo sapiens) (UniProt Q9Y253) (assay: qHTS for Inhibitors of Polymerase Eta). Conditions: recombinant Pol eta, fluorescent DNA replication assay; series mostly up to 114 µM; activity change, negative = inhibition: at the top concentration.
How it was run: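 Fluorescent replication assay: 50 nM final substrate added after a 15 min room-temperature compound preincubation with 10 nM enzyme. Signal taken at 0 min and again at 10 min.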
% is scaled to controls: 0 for no effect and ±100 for the full control effect; potency is read from the fitted curve at half-maximal effect; tags tell the direction and shape of the fitted curve.

Sequence of UniProt Q9Y253 (Q9Y253 whole entry, looked up): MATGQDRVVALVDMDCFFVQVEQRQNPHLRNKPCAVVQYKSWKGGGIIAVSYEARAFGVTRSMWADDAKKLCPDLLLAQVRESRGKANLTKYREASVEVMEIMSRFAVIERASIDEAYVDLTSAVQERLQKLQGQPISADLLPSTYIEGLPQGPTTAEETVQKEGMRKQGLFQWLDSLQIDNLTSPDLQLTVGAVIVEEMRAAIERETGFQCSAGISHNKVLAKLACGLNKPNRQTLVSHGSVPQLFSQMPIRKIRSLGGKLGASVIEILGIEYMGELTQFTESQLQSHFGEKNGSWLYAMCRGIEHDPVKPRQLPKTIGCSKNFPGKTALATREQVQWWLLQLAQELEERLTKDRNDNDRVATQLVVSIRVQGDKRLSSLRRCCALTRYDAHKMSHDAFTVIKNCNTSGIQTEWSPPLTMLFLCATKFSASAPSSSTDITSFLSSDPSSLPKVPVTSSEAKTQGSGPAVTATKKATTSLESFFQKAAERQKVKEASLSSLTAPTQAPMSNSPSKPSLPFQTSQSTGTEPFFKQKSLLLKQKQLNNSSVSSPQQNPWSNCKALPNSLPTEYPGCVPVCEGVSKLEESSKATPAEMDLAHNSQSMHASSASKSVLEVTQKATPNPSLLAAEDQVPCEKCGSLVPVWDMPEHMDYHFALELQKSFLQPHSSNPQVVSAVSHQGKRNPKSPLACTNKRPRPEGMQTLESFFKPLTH

| Structure (SMILES) | Potency | activity change, negative = inhibition |
| --- | --- | --- |
| O=C(ONc1ccc(N=NC(=O)c2ccccc2O)cc1)c1ccccc1 | active: 50.1 µM | – |
| CCOc1ccc(-c2cc(C)n3nc(C(N)=O)cc3n2)cc1 | active: 22.4 µM | – |
| COc1ccc(CN2CCc3ccccc3C2)cc1Br | inconclusive: 50.1 µM [inhibitor, partial curve, poor fit] | – |
| Cc1ccc(Cn2cc(S(=O)(=O)c3cccc(Cl)c3)c(=O)c3cc(F)c(N4CCCCC4)cc32)cc1 | – | inactive: -7.67% |
| Cc1ccc(NC(=O)c2ccccc2OCC(=O)c2ccccc2)cc1 | inconclusive: 22.4 µM [inhibitor, partial curve, poor fit] | – |
| COc1ccc(Cn2c(O)c(C=Nc3ccccc3C(=O)O)c3ccccc3c2=O)cc1 | active: 20 µM | – |
| CCCSc1nnc(CNC(=O)C23CC4CC(CC(C4)C2)C3)n1Cc1ccccc1 | inconclusive: 44.7 µM [inhibitor, partial curve, poor fit] | – |
| CCc1ccc(NC(=O)CN(c2ccc(Cl)cc2)S(=O)(=O)c2ccsc2C(=O)OC)cc1 | – | inactive: -25.6% |
| Oc1ccc2ccccc2c1N=Nc1ccccn1 | inconclusive: 28.2 µM [inhibitor, single point] | – |
| O=C1CCCC2=C1C(c1cccs1)Nc1ccc3ncccc3c12 (configuration not stated) | – | inactive: -9.37% |
| O=S(=O)(c1ccccc1)N1CCSC1c1ccco1 (configuration not stated) | inconclusive: 35.5 µM [inhibitor, single point] | – |
| Cc1ccc(S(=O)(=O)N2CCCCC2)cc1C(=O)NCCC1=CCCCC1 | inconclusive: 39.8 µM [inhibitor, partial curve, poor fit] | – |
| C#CCOCCOCCOCCNc1nc(N2CCN(C(=O)Cn3cc(CCCN=C(N)N)nn3)CC2)nc(N2CCN(C(=O)[C@H]([C@@H](C)CC)n3cc(CCC(=O)O)nn3)CC2)n1 | – | inactive: 2.54% |
| CC(C)NC(=S)N/N=C/c1sc(N2CCCCC2)nc1-c1cccs1 | inconclusive: 44.7 µM [inhibitor, partial curve, poor fit] | – |
| Nc1cccc2c1C(=O)N(C(=O)/C=C/c1cccc(Br)c1)C2=O | inconclusive: 35.5 µM [inhibitor, partial curve, poor fit] | – |
| CCOc1ccc(S(=O)(=O)Nc2cc(NS(=O)(=O)c3ccc(OCC)cc3)cc(C(=O)O)c2)cc1 | active: 25.1 µM | – |
| Nc1ccc2c(c1)C(O)c1cccc(C(=O)O)c1-2 (configuration not stated) | inconclusive: 31.6 µM [inhibitor, partial curve] | – |
| COc1ccc(S(=O)(=O)Nc2ccc3oc4c(c3c2)CCCC4)cc1 | inconclusive: 89.1 µM [inhibitor, partial curve, poor fit] | – |
| CCCN(CCC)c1nc(N)c(C#N)c(CC#N)c1C#N | inconclusive: 28.2 µM [inhibitor, single point] | – |
| CC(C)n1c(SCC(=O)Nc2nncs2)nnc1-c1ccco1 | active: 7.94 µM | – |
| O=C(O)CSc1nc2sc3c(c2c(=O)n1-c1ccccc1)CCC3 | inconclusive: 56.2 µM [inhibitor, partial curve, poor fit] | – |
| C#CC(CO)N(CCN(Cc1ccccc1)C(C#C)CO)Cc1ccccc1 (configuration not stated) | inconclusive: 100 µM [inhibitor, partial curve, poor fit] | – |
| Cc1nc2ccc(S(=O)(=O)NC(C(=O)N3CCn4c3nc3ccccc34)C(C)C)cc2s1 (configuration not stated) | – | inactive: -10.2% |

| Structure (SMILES) | Potency | activity change, negative = inhibition |
| --- | --- | --- |
| CCOC(=O)C1=C(C)N(c2ccc(C)c(C)c2)C(=O)/C1=C\c1ccco1 | – | inactive: -14.3% |
| C#CCn1c(=NC(=O)c2ccc3c(c2)OCCO3)sc2cc(OC)c(OC)cc21 | inconclusive: 89.1 µM [inhibitor, partial curve, poor fit] | – |
| Cc1cccc(NC(=S)N(CCN(C)C)C(C)c2ccco2)c1 (configuration not stated) | inconclusive: 25.1 µM [inhibitor, partial curve, poor fit] | – |
| CCCc1cc2c(OC(=O)CC)c(-c3ccc(C(=O)OCC)o3)c(=O)oc2cc1OC | inconclusive: 35.5 µM [inhibitor, partial curve, poor fit] | – |
| O=S1(=O)CC/C(=N\Nc2ccccc2)c2ccsc21 | – | inactive: -8.79% |
| Cc1ccc(NC(=O)C2CCN(S(=O)(=O)c3ccc4c(c3)NC(=O)C(C)S4)CC2)c(Cl)c1 (configuration not stated) | – | inactive: -17.2% |
| Cc1nc2nc(NC(=O)c3ccc(C(C)(C)C)cc3)[nH]n2c(=O)c1Cc1ccccc1 | – | inactive: -1.01% |
| Cc1ccc(NC(=S)NCc2ccc3c(c2)OCO3)cc1C | inconclusive: 79.4 µM [inhibitor, partial curve, poor fit] | – |
| CCN(CC)C(=O)c1c(C)[nH]c(=S)c(C#N)c1-c1ccco1 | – | inactive: -13.8% |
| O=C1OC(c2ccc3c(c2)OCO3)=N/C1=C\c1ccc(C(=O)O)cc1 | active: 10 µM | – |
| O=C(O)c1cc([N+](=O)[O-])c(N2CCCC2)c([N+](=O)[O-])c1 | inconclusive: 31.6 µM [inhibitor, partial curve] | – |
| CCOc1ccc(S(=O)(=O)N(C)c2ccc(OCC(=O)NCC3CCCO3)cc2)cc1 (configuration not stated) | inconclusive: 79.4 µM [inhibitor, partial curve, poor fit] | – |
| COc1ccc(Cl)cc1NC(=O)N(C)CCc1c(C)nn(C)c1C | – | inactive: -18.5% |
| Nc1ccc(-c2ncc(-c3ccccc3)o2)cc1 | – | inactive: -16.6% |
| Cc1cccc(Cn2c(=O)n(Cc3ccccc3)c(=O)c3c2c2cc(C)ccc2n3C)c1 | – | inactive: -14.4% |
| CCOC(=O)c1ccc(-c2ccc(C(=O)Nc3cccnc3)o2)cc1 | inconclusive: 31.6 µM [inhibitor, partial curve, poor fit] | – |
| COC(=O)c1sc(N2C(=O)C(O)=C(C(=O)c3ccc(C)o3)C2c2ccc([N+](=O)[O-])cc2)nc1C (configuration not stated) | inconclusive: 89.1 µM [inhibitor, single point] | – |
| O=C(NNC(=O)c1ccc(-c2ccccc2)cc1)Nc1ccc(F)cc1F | – | inactive: -12.7% |
| Cc1cc2nc(-c3cccnc3SCC(=O)NCc3ccco3)[nH]c2cc1C | – | inactive: -18.8% |
| O=C(COC(=O)c1ccccc1NC(=O)c1ccco1)Nc1ccc2c(c1)OCO2 | inconclusive: 17.8 µM [inhibitor, partial curve] | – |
| COC(=O)c1[nH]cnc1C(=O)c1ccccc1 | – | inactive: -7.75% |
| CC1=C(C(=O)OCC2CCCCC2)C(c2ccc(Cl)cc2)CC(=O)N1 (configuration not stated) | inconclusive: 44.7 µM [inhibitor, partial curve, poor fit] | – |
| CC(C)(C)C(=O)Nc1ccc(C(=O)NCc2cccnc2)cc1 | inconclusive: 100 µM [inhibitor, single point] | – |

| Structure (SMILES) | Potency | activity change, negative = inhibition |
| --- | --- | --- |
| CCOc1nc(Nc2ccc(OC)cc2)nc(OCC)n1 | active: 20 µM | – |
| COc1cc(/C=N/NC(=O)C(Cc2c[nH]c3ccccc23)NC(=O)OCc2ccccc2)cc([N+](=O)[O-])c1O (configuration not stated) | active: 20 µM | – |
| O=C(NCc1cccc(CNC(=O)C(=O)NCc2ccco2)c1)C(=O)NCc1ccco1 | active: 28.2 µM | – |
| COc1ccccc1NC(=O)c1c(NCc2ccc(C)o2)sc2c1CCCCC2 | inconclusive: 89.1 µM [inhibitor, single point] | – |
| CCOc1ccc(C(=O)Nc2ccc(-c3cc4ccccc4oc3=O)c(C)c2)cc1[N+](=O)[O-] | inconclusive: 8.91 µM [inhibitor, full curve] | – |
| Cc1ccc(NC(=O)c2ccc(C)c(S(=O)(=O)N3CCOCC3)c2)nc1 | inconclusive: 10 µM [inhibitor, partial curve, poor fit] | – |
| CCOc1ccc(/C=C(\C#N)C(=O)NCC2CCCO2)cc1OCC (configuration not stated) | – | inactive: -3.13% |
| CC(C)CC(=O)Nc1nnc(S(=O)(=O)N(C)Cc2ccc(Cl)cc2)s1 | – | inactive: -5.35% |
| Cc1cc(NC(=O)Cn2nc(C(=O)O)c3ccccc3c2=O)ccc1Br | inconclusive: 22.4 µM [inhibitor, single point] | – |
| COC(=O)C(C)N1C(=O)S/C(=C\c2ccc(-c3ccc(C(=O)O)cc3C)o2)C1=O (configuration not stated) | active: 10 µM | – |
| CCOc1ccc(OCCC(=O)NNC(=O)c2nn(C)c(=O)c3ccccc23)cc1 | inconclusive: 25.1 µM [inhibitor, single point] | – |
| COc1cccc(CNC(=O)Cn2nc(-c3ccc(Cl)cc3)ccc2=O)c1 | inconclusive: 89.1 µM [inhibitor, single point] | – |
| COc1ccccc1CNC(=O)c1cn(C)c2ccc(S(=O)(=O)N(C)C3CCCCC3)cc2c1=O | – | inactive: -22% |
| CCOC(=O)Nc1cc(OC)cc2ccc(C)nc12 | inconclusive: 100 µM [inhibitor, partial curve, poor fit] | – |
| CNC(=S)N/N=C/c1ccc(-c2cccc(C(=O)O)c2)o1 | – | inactive: -10.4% |
| O=Cc1cccc(Oc2ncccn2)c1 | – | inactive: -14.3% |
| CC(=O)c1ccc(S(=O)(=O)Nc2ccc(C(=O)NCC(c3ccco3)N3CCCC3)cc2)cc1 (configuration not stated) | active: 20 µM | – |
| Cc1ccc([N+](=O)[O-])cc1S(=O)(=O)Nc1ccc(-c2ccc(N3CCCC3)nn2)cc1 | inconclusive: 12.6 µM [inhibitor, full curve, poor fit] | – |
| C#CCOCCOCCOCCNc1nc(N2CCN(C(=O)CCCCCCCCCCNC(=O)[C@@H](CCC(=O)O)n3cc(CCCCCN)nn3)CC2)nc(N2CCN(C(=O)CCCCCCCCCCNC(=O)[C@H](CCCCN)n3cc(C[C@@H](C)CC)nn3)CC2)n1 | active: 89.1 µM | – |
| CC(C)(O)C#Cc1ccc(C(=O)N2CCN(c3ccc(Cl)cc3)CC2)cc1 | inconclusive: 79.4 µM [inhibitor, partial curve, poor fit] | – |
| C#CCOCCOCCOCCNc1nc(N2CCN(C(=O)CCCCCCCCCCNC(=O)[C@@H](CCSC)n3cc(CCO)nn3)CC2)nc(N2CCN(C(=O)CCCCCCCCCCNC(=O)[C@H](CO)n3cc(CCCCCN)nn3)CC2)n1 | inconclusive: 89.1 µM [inhibitor, single point] | – |
